The whole screen tested about 310,000 compounds, of which about 14,000 (4.5%) showed an effect of 50% or more. The effect is printed as a negative number. The list shows a part of the results.
biological target: human ether-à-go-go-related gene (hERG) potassium channel (human, UniProt Q12809); experiment: primary screen, population patch clamp on CHO cells stably expressing hERG
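Note: peak tail current of the secondary pulse compared with the same well before compound.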

Chain of human ether-à-go-go-related gene (hERG) potassium channel (Q12809 whole entry, looked up): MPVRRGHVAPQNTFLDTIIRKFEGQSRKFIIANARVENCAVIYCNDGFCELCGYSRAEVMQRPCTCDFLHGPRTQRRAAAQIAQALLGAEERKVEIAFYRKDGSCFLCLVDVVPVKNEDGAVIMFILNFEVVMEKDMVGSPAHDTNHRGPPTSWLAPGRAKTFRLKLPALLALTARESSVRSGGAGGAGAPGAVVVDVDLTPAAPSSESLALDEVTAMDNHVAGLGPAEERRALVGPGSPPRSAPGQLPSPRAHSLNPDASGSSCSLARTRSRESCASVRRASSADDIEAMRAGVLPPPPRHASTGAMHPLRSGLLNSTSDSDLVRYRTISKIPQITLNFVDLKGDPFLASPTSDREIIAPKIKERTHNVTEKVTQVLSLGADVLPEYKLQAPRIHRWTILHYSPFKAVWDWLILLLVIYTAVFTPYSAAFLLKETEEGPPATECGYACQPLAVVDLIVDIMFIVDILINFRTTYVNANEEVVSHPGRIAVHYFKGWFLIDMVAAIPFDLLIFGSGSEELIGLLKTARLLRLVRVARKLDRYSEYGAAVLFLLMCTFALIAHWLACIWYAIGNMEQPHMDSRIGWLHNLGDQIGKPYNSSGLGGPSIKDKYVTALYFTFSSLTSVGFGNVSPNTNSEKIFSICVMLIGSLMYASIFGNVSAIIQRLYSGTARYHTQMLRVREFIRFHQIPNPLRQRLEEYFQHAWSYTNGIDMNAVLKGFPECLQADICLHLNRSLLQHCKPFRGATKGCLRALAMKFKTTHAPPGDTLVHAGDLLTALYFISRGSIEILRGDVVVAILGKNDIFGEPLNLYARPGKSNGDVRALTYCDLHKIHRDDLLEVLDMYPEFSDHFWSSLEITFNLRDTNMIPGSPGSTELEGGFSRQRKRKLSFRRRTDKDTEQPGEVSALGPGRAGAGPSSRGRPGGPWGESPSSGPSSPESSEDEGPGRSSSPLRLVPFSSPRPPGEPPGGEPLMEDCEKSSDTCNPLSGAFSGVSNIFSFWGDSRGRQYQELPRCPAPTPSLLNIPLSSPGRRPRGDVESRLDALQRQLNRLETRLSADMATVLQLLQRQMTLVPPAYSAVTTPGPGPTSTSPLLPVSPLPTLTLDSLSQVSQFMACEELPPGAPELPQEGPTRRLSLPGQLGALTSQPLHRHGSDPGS

Compound	hERG current change (%, negative = inhibition) at 10uM
COc1ccccc1N(Cc1ccccc1)S(=O)(=O)c1cccc(C(=O)Nc2ccc(C(C)=O)cc2)c1	-1.35%
Cc1nc(-c2cccnc2)sc1C(=O)Nc1cccc(C(F)(F)F)c1	-32.8%
O=CN1CC(=O)N(c2ccccc2)c2c([nH]c3ccccc23)C1	-23.2%
COC(=O)c1ccc(Oc2c(Cl)cccc2[N+](=O)[O-])cc1	3.65%
Cc1ccc(NC(=O)c2nnn(CC(=O)Nc3ccc4c(c3)OCO4)c2N)cc1C	8.01%
CCCCN1c2ccccc2N(CCCO)c2cc(C)nnc21	-14.2%
Cc1ccc(C(=O)Oc2ccc3ccc(=O)oc3c2)cc1	7.18%
Cc1ccc(S(=O)(=O)N2CCN(c3ncccn3)CC2)c(C)c1	7.37%
c1ccc(-c2nn3nnnc3c3ccccc23)cc1	-71.8%
Cc1cc(N2CCOCC2)nc2ccc(NC(=O)CCC(=O)N3CCCC(C)C3)cc12 (centres unmarked)	-20.5%
COc1ccc(N2CCN(S(=O)(=O)c3cccs3)CC2)cc1	-5.58%
O=C1CSC2(N1)C1CC3CC(C1)CC2C3 (centres unmarked)	7.2%
Cc1c(O)c(=O)n(-c2ccccc2)n1C	12.4%
CNC(=O)c1ccccc1NC(=O)c1cccc(S(=O)(=O)N2CCCCC2)c1	-51.1%
COc1ccc(NC(=O)Cc2nnc(SCC(=O)Nc3ccc(F)cc3)n2C)cc1	-13.7%
Cc1csc(=O)n1CC(=O)OCC(=O)Nc1ccc(F)c(F)c1	7.51%
COc1ccc(CC(=O)Nc2ccccc2NC(=O)Cc2ccc(OC)cc2)cc1	8.9%
COc1ccc(NC(=O)c2ccc(C)cc2)c[n+]1[O-]	15.6%
Cc1cccc(C(=O)N[C@H](C(=O)OCC(=O)NC2CCS(=O)(=O)C2)C(C)C)c1 (some centres unmarked)	21.1%
C#Cc1ccc([C@@H]2C=C(C(=O)NC3CC3)O[C@H](OCC)[C@H]2CCCO)cc1	-35.2%
O=C(Oc1ccccc1)c1cc2ccccc2oc1=O	10.3%
Cc1ccc(Cl)cc1NC(=O)COC(=O)CC(C)(C)C	2.56%
CC1CCCN(S(=O)(=O)CCNC(=O)c2ccccc2)C1 (centres unmarked)	2.82%

Compound	hERG current change (%, negative = inhibition) at 10uM
COC(=O)c1ccc(-c2nc(-c3cccs3)no2)cc1	11.5%
CCCc1cc(=O)[nH]c(SCC(=O)c2ccc3c(c2)NC(=O)CO3)n1	-10.1%
COc1cc(/C=C2/C(=O)NN(c3ccc(Cl)c(Cl)c3)C2=O)cc([N+](=O)[O-])c1O	10.6%
COc1ccc(-n2c(=O)[nH]cc(C(=O)Nc3ccc(NC(C)=O)cc3)c2=O)cc1	9.69%
Cc1cc(NC(=O)CSc2nnnn2Cc2ccccc2)no1	-0.78%
COc1cc(CN2CCN(Cc3ccc4cc(F)ccc4n3)CC2CCO)cc(OC)c1 (centres unmarked)	-64.4%
COc1ccccc1C1(CC(=O)Nc2nccs2)CCOC(C(C)C)C1 (centres unmarked)	-1.39%
Cc1cc(NC(=O)CCS(=O)(=O)c2ccc3c(c2)NC(=O)C(C)S3)ccc1Br (centres unmarked)	2.7%
CCN1C(=O)NC(=O)/C(=C\c2cn(CC(=O)N3CCCCC3)c3ccccc23)C1=O	9.02%
Cn1cnnc1SCc1ccc(C#N)cc1Cl	-11.5%
CN(C(=O)c1ccc(NC(=O)Cc2ccc(NC(=O)C3CCN(C(=O)C4CCC4)CC3)cc2)cc1)C1CC1	17.1%
C#CCOC(=O)CCCNc1ccc([N+](=O)[O-])cc1[N+](=O)[O-]	-51.1%
CC(/C=N/NC(=O)c1cc(-c2ccncc2)nc2ccccc12)=C\c1ccco1	-31.9%
CN(C)c1cc(N/N=C\c2ccccc2)nc(N(C)C)n1	-31.4%
C=CCNC(=O)/C(C#N)=C/c1ccccc1[N+](=O)[O-]	-1.61%
C/C(=N\Nc1ccc(C)c(Cl)c1)c1cccnc1	23%
COc1ccc(NC(=O)CSc2nncc3ccccc23)cc1	-5.99%
CCOc1ccc(-c2n[nH]c(=S)o2)cc1	21.2%
CN(C)CCCN(Cc1cc2cc3c(cc2[nH]c1=O)OCO3)C(=S)Nc1ccccc1	-36.6%
COCCN1Cc2cccc(C(=O)NCc3ccccc3OC)c2C1=O	-11.3%
Cc1cccc(-c2noc(CCC(=O)NCCc3ccccc3)n2)c1	12%
COc1ccccc1NC(=O)NCc1ccccc1F	14.7%
CCCC(=O)NC(c1ccc(OC)c(OC)c1)c1c(O)ccc2ccccc12 (centres unmarked)	-22.3%

Compound	hERG current change (%, negative = inhibition) at 10uM
COc1ccc(O)c(/C=N/NC(=S)NCCc2ccccc2)c1	27.1%
CCOc1cc(C#N)c(NC(=O)CSc2nnnn2-c2ccc(OC)cc2)cc1OCC	-31.3%
CCCn1cc(CN2CCC(Oc3ccc(C(=O)N4CCCC4)cc3)CC2)c(C)n1	8.15%
CC(C)C(OC(=O)c1ccccc1)c1nccc2ccccc12 (centres unmarked)	-5.8%
Cc1cc(C)cc(NC(=O)Nc2ccc(S(=O)(=O)Nc3cc(C)on3)cc2)c1	14.3%
COCCOC(=O)C(C#N)c1nc2ccccc2nc1N1CCN(Cc2ccccc2)CC1 (centres unmarked)	-64.3%
COc1ccc(C2=Nn3c(nnc3-c3cc(C)[nH]n3)SC2)cc1	-64%
CC1(C)C2CC=C(/C=N/NC(=O)c3ccc(O)cc3)C1C2 (centres unmarked)	2.64%
CCOC(=O)C(NC(=O)Nc1ccc(F)cc1F)(Oc1ccc(F)cc1)C(F)(F)F (centres unmarked)	1.29%
CCOc1ccc2nc(SCc3ccc(C(=O)OC)o3)[nH]c2c1	4.11%
Cc1ccc(C2C(C#N)=C(N)Oc3c2c(=O)n(C)c(=O)n3C)cc1 (centres unmarked)	-4.15%
O=C(/C=C/c1ccccc1)N1CCOCC1	13.9%
O=C(NCCO)NC(=S)c1ccccc1	3.09%
COc1ccc(CCNC(=O)CSc2ccc(-c3ccco3)nn2)cc1	-4.99%
COc1ccc(C(=O)NC2=NCCS2)cc1S(=O)(=O)N1CCCCC1C (centres unmarked)	-13.5%
Cc1ccc(N(CCC#N)C(=O)COC(=O)C2CCN(S(=O)(=O)c3ccc(C)c(C)c3)CC2)cc1	-14.9%
COc1ccc(C(=O)N2CCCc3ccccc32)cc1OC	10.7%
COc1cccc(OCC(=O)N(C)Cc2nc(-c3ccccc3)no2)c1	-12.1%
COc1ccc2cc(-c3cc(C(=O)OCC(=O)NC4CCS(=O)(=O)C4)c4ccccc4n3)ccc2c1 (centres unmarked)	16.1%
Cc1ccc(NC(=O)COC(=O)C2CC2C)c(S(=O)(=O)N2CCCCC2)c1 (centres unmarked)	-10.8%
COc1cccc(C(=O)CC(=O)C(=O)Nc2cc(OC)ccc2OC)c1	11.1%
Cc1cc(C(=O)N/N=C2\CC(=O)CC(C)(C)C2)c(C)n1-c1ccc(F)cc1	4.02%
CC(C/C=N/NC(=O)COc1cc(Cl)ccc1Cl)c1ccccc1 (centres unmarked)	5.8%

Compound	hERG current change (%, negative = inhibition) at 10uM
Cc1ccnc(NC(=O)Nc2cccc(F)c2)c1	-4.23%
O=C(Nc1cccc(S(=O)(=O)N2CCCC2)c1)c1ccc2ccccc2n1	20.9%
O=C(CNC(=O)c1ccc(Br)o1)Nc1cccc(S(=O)(=O)N2CCOCC2)c1	-9.72%
CCOC(=O)Cn1c(CN2CCN(C(c3ccccc3)c3ccccc3)CC2)nc2c1c(=O)n(C)c(=O)n2C	-38.7%
CC(=O)NNC(=O)CCn1nnc2ccccc21	20.8%
Cc1ccc(C)c2sc(NC(=O)CN3C(=O)CCC3=O)nc12	-15.9%
COc1cc(C(=O)NCC(=O)NCCCSc2ccccc2)cc(OC)c1OC	-9.35%
CCOc1ccc(NC(=O)CSc2nnc(Cc3ccccc3)c(=O)n2N)cc1	17.1%
O=C(CN1CCN(Cc2ccccc2)CC1)NCC1COc2ccccc2O1 (centres unmarked)	-43.8%
COc1ccc(Cl)cc1NC(=O)CN(C)C(=O)c1cc2ccccc2cc1OC	-7.19%
CC(C)N(C(=O)Cn1c(-c2ccccc2Cl)nc2ccccc21)c1ccccc1	-17.9%
Clc1ncnc2scc(C3COc4ccccc4O3)c12 (centres unmarked)	-2.46%
COCCSc1ccccc1C(=O)N1CCCC1	3.39%
O=C1c2ccccc2C(=O)N1CCn1ccnc1	20.2%
COc1ccc(C(=O)COC(=O)c2ccccc2O)c(OC)c1	8.01%
CCOC(=O)C1(CCCc2ccccc2)CCN(C(=O)CCN2CCCCC2=O)CC1	-62.8%
Cc1sc2ncnc(Sc3nnc4sc5ccccc5n34)c2c1C	0.406%
CN1C(C(=O)NCCc2cccs2)CC2Cn3c(nc4ccccc43)C21 (centres unmarked)	-27.3%
CCOC(=O)C1=C(C)NC(SCC(=O)Nc2cc(C)on2)=C(C#N)C1c1cccs1 (centres unmarked)	5.13%
COc1nc(-c2ccccc2)ccc1-c1noc(-c2ccccc2)n1	4.55%

From PMC4336329 (PLoS ONE, 2015)
